This is one part of the list.
Legend:
Assay in all cases: glycan array binding signal (z-score within array); higher = stronger binding
Conditions in all cases: glycan notation: IUPAC condensed, linker removed
[1] = biological target: Fuc(a1-2)Gal6S(b1-3)GlcNAc6S
Method in brief: (§1)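 The Consortium for Functional Glycomics database supplied 3228 glycan arrays, of which those lacking an available protein sequence were dropped. The binding signal, a within-array Z-score, was averaged across arrays of the same protein sequence and across linkers. Negative scores can be read as non-binding.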

[2] = biological target: Fuc(a1-2)Gal6S(b1-4)Glc
Method in brief: as §1

[3] = biological target: Fuc(a1-2)Gal6S(b1-4)Glc6S
Method in brief: as §1

[4] = biological target: Fuc(a1-2)[Gal(a1-3)]Gal
Method in brief: as §1

[5] = biological target: Fuc(a1-2)[Gal(a1-3)]Gal(b1-3)GalNAc
Method in brief: as §1

[6] = biological target: Fuc(a1-2)[Gal(a1-3)]Gal(b1-3)GalNAc(b1-3)Gal(a1-4)Gal(b1-4)Glc
Method in brief: as §1

[7] = biological target: Fuc(a1-2)[Gal(a1-3)]Gal(b1-3)GlcNAc
Method in brief: as §1

[8] = biological target: Fuc(a1-2)[Gal(a1-3)]Gal(b1-3)GlcNAc(b1-2)Man(a1-3)[Fuc(a1-2)[Gal(a1-3)]Gal(b1-3)GlcNAc(b1-2)Man(a1-6)]Man(b1-4)GlcNAc(b1-4)GlcNAc
Method in brief: as §1

[9] = biological target: Fuc(a1-2)[Gal(a1-3)]Gal(b1-3)GlcNAc(b1-2)Man(a1-3)[Fuc(a1-2)[Gal(a1-3)]Gal(b1-3)GlcNAc(b1-2)Man(a1-6)]Man(b1-4)GlcNAc(b1-4)[Fuc(a1-6)]GlcNAc
Method in brief: as §1

[10] = biological target: Fuc(a1-2)[Gal(a1-3)]Gal(b1-3)GlcNAc(b1-3)GalNAc
Method in brief: as §1

[11] = biological target: Fuc(a1-2)[Gal(a1-3)]Gal(b1-3)GlcNAc(b1-6)GalNAc
Method in brief: as §1

[12] = biological target: Fuc(a1-2)[Gal(a1-3)]Gal(b1-4)Glc
Method in brief: as §1

[13] = biological target: Fuc(a1-2)[Gal(a1-3)]Gal(b1-4)GlcNAc
Method in brief: as §1

[14] = biological target: Fuc(a1-2)[Gal(a1-3)]Gal(b1-4)GlcNAc(b1-2)Man
Method in brief: as §1

[15] = biological target: Fuc(a1-2)[Gal(a1-3)]Gal(b1-4)GlcNAc(b1-2)Man(a1-3)[Fuc(a1-2)[Gal(a1-3)]Gal(b1-4)GlcNAc(b1-2)Man(a1-6)]Man(b1-4)GlcNAc(b1-4)GlcNAc
Method in brief: as §1

[16] = biological target: Fuc(a1-2)[Gal(a1-3)]Gal(b1-4)GlcNAc(b1-2)Man(a1-3)[Fuc(a1-2)[Gal(a1-3)]Gal(b1-4)GlcNAc(b1-2)Man(a1-6)]Man(b1-4)GlcNAc(b1-4)[Fuc(a1-6)]GlcNAc
Method in brief: as §1

[17] = biological target: Fuc(a1-2)[Gal(a1-3)]Gal(b1-4)GlcNAc(b1-3)GalNAc
Method in brief: as §1

[18] = biological target: Fuc(a1-2)[Gal(a1-3)]Gal(b1-4)GlcNAc(b1-3)[Fuc(a1-2)[Gal(a1-3)]Gal(b1-4)GlcNAc(b1-6)]GalNAc
Method in brief: as §1

[19] = biological target: Fuc(a1-2)[Gal(a1-3)]Gal(b1-4)GlcNAc(b1-6)GalNAc
Method in brief: as §1

[20] = biological target: Fuc(a1-2)[Gal(a1-3)]Gal(b1-4)[Fuc(a1-3)]Glc
Method in brief: as §1

[21] = biological target: Fuc(a1-2)[Gal(a1-3)]Gal(b1-4)[Fuc(a1-3)]GlcNAc
Method in brief: as §1

[22] = biological target: Fuc(a1-2)[Gal(a1-3)]Gal(b1-4)[Fuc(a1-3)]GlcNAc(b1-3)GalNAc
Method in brief: as §1

[23] = biological target: Fuc(a1-2)[Gal(a1-4)]Gal(b1-4)GlcNAc
Method in brief: as §1

[24] = biological target: Fuc(a1-2)[GalNAc(a1-3)]Gal
Method in brief: as §1

[25] = biological target: Fuc(a1-2)[GalNAc(a1-3)]Gal(b1-3)GalNAc(a1-3)[Fuc(a1-2)]Gal(b1-4)GlcNAc
Method in brief: as §1

[26] = biological target: Fuc(a1-2)[GalNAc(a1-3)]Gal(b1-3)GalNAc(b1-3)Gal(a1-4)Gal(b1-4)Glc
Method in brief: as §1

[27] = biological target: Fuc(a1-2)[GalNAc(a1-3)]Gal(b1-3)GlcNAc
Method in brief: as §1

[28] = biological target: Fuc(a1-2)[GalNAc(a1-3)]Gal(b1-3)GlcNAc(b1-2)Man(a1-3)[Fuc(a1-2)[GalNAc(a1-3)]Gal(b1-3)GlcNAc(b1-2)Man(a1-6)]Man(b1-4)GlcNAc(b1-4)GlcNAc
Method in brief: as §1

[29] = biological target: Fuc(a1-2)[GalNAc(a1-3)]Gal(b1-3)GlcNAc(b1-2)Man(a1-3)[Fuc(a1-2)[GalNAc(a1-3)]Gal(b1-3)GlcNAc(b1-2)Man(a1-6)]Man(b1-4)GlcNAc(b1-4)[Fuc(a1-6)]GlcNAc
Method in brief: as §1

[30] = biological target: Fuc(a1-2)[GalNAc(a1-3)]Gal(b1-3)GlcNAc(b1-3)GalNAc
Method in brief: as §1

[31] = biological target: Fuc(a1-2)[GalNAc(a1-3)]Gal(b1-3)GlcNAc(b1-6)GalNAc
Method in brief: as §1

[32] = biological target: Fuc(a1-2)[GalNAc(a1-3)]Gal(b1-4)Glc
Method in brief: as §1

[33] = biological target: Fuc(a1-2)[GalNAc(a1-3)]Gal(b1-4)GlcNAc
Method in brief: as §1

[34] = biological target: Fuc(a1-2)[GalNAc(a1-3)]Gal(b1-4)GlcNAc(b1-2)Man
Method in brief: as §1

[35] = biological target: Fuc(a1-2)[GalNAc(a1-3)]Gal(b1-4)GlcNAc(b1-2)Man(a1-3)[Fuc(a1-2)[GalNAc(a1-3)]Gal(b1-4)GlcNAc(b1-2)Man(a1-6)]Man(b1-4)GlcNAc(b1-4)GlcNAc
Method in brief: as §1

[36] = biological target: Fuc(a1-2)[GalNAc(a1-3)]Gal(b1-4)GlcNAc(b1-2)Man(a1-3)[Fuc(a1-2)[GalNAc(a1-3)]Gal(b1-4)GlcNAc(b1-2)Man(a1-6)]Man(b1-4)GlcNAc(b1-4)[Fuc(a1-6)]GlcNAc
Method in brief: as §1

[37] = biological target: Fuc(a1-2)[GalNAc(a1-3)]Gal(b1-4)GlcNAc(b1-3)Gal(b1-4)GlcNAc
Method in brief: as §1

[38] = biological target: Fuc(a1-2)[GalNAc(a1-3)]Gal(b1-4)GlcNAc(b1-3)Gal(b1-4)GlcNAc(b1-3)Gal(b1-4)GlcNAc
Method in brief: as §1

[39] = biological target: Fuc(a1-2)[GalNAc(a1-3)]Gal(b1-4)GlcNAc(b1-3)GalNAc
Method in brief: as §1

[40] = biological target: Fuc(a1-2)[GalNAc(a1-3)]Gal(b1-4)GlcNAc(b1-3)[Fuc(a1-2)[GalNAc(a1-3)]Gal(b1-4)GlcNAc(b1-6)]GalNAc
Method in brief: as §1

[41] = biological target: Fuc(a1-2)[GalNAc(a1-3)]Gal(b1-4)GlcNAc(b1-6)GalNAc
Method in brief: as §1

[42] = biological target: Fuc(a1-2)[GalNAc(a1-3)]Gal(b1-4)[Fuc(a1-3)]GlcNAc
Method in brief: as §1

[43] = biological target: Fuc(a1-2)[GalNAc(a1-3)]Gal(b1-4)[Fuc(a1-3)]GlcNAc(b1-3)GalNAc
Method in brief: as §1

[44] = biological target: Fuc(a1-2)[GalNAc(a1-4)]Gal(b1-4)GlcNAc
Method in brief: as §1

[45] = biological target: Fuc(a1-2)[GalNAc(b1-3)]Gal
Method in brief: as §1

B1: Thrombomodulin (Mus musculus) (protein)
chain: ALAKLQPTGSQCVEHECFALFQGPATFLDASQACQRLQGHLMTVRSSVAADVISLLLSQSSMDLGPWIGLQLPQGCDDPVHLGPLRGFQWVTGDNHTSYSRWARPNDQTAPLCGPLCVTVSTATEAAPGEPAWEEKPCETETQGFLCEFYFTASC
glycan array binding signal (z-score) [1]: 0.036
glycan array binding signal (z-score) [2]: 0
glycan array binding signal (z-score) [3]: -0.056
glycan array binding signal (z-score) [4]: -0.245
glycan array binding signal (z-score) [5]: -0.148
glycan array binding signal (z-score) [6]: -0.225
glycan array binding signal (z-score) [7]: 0.177
glycan array binding signal (z-score) [8]: -0.306
glycan array binding signal (z-score) [9]: -0.076
glycan array binding signal (z-score) [10]: -0.103
glycan array binding signal (z-score) [11]: -0.252
glycan array binding signal (z-score) [12]: 0.226
glycan array binding signal (z-score) [13]: -0.22
glycan array binding signal (z-score) [14]: -0.27
glycan array binding signal (z-score) [15]: -0.022
glycan array binding signal (z-score) [16]: -0.116
glycan array binding signal (z-score) [17]: 0.002
glycan array binding signal (z-score) [18]: 5.4
glycan array binding signal (z-score) [19]: -0.16
glycan array binding signal (z-score) [20]: -0.271
glycan array binding signal (z-score) [21]: -0.199
glycan array binding signal (z-score) [22]: -0.095
glycan array binding signal (z-score) [23]: 0.154
glycan array binding signal (z-score) [24]: -0.227
glycan array binding signal (z-score) [25]: 0.021
glycan array binding signal (z-score) [26]: -0.176
glycan array binding signal (z-score) [27]: 0.149
glycan array binding signal (z-score) [28]: -0.081
glycan array binding signal (z-score) [29]: 0.01
glycan array binding signal (z-score) [30]: 0.368
glycan array binding signal (z-score) [31]: -0.493
glycan array binding signal (z-score) [32]: -0.15
glycan array binding signal (z-score) [33]: -0.186
glycan array binding signal (z-score) [34]: -0.381
glycan array binding signal (z-score) [35]: -0.083
glycan array binding signal (z-score) [36]: -0.196
glycan array binding signal (z-score) [37]: -0.368
glycan array binding signal (z-score) [38]: -0.007
glycan array binding signal (z-score) [39]: -0.346
glycan array binding signal (z-score) [40]: -0.256
glycan array binding signal (z-score) [41]: -0.28
glycan array binding signal (z-score) [42]: -0.298
glycan array binding signal (z-score) [43]: -0.197
glycan array binding signal (z-score) [44]: -0.109
glycan array binding signal (z-score) [45]: -0.108

Source: the supplement of paper PMC8728848
